Experimental data reported in PubChem BioAssay AID1508624 (National Center for Advancing Translational Sciences (NCATS), 2021).
The whole screen tested about 48,000 compounds, of which about 120 (0.25%) were called active. Inconclusive results (about 4%) are left out. Calls come from the whole dose curve; as a rule, active = well fitted activation curve with a large enough effect; inconclusive = small, poorly fitted or top-dose-only effect, or another doubt; inactive = no such curve, though single readings can be large or run the other way. The list shows a part of the results.

Test: Primary qHTS for Identification of Small Molecule Activators of Huntingtin-Antisense Promoter Activity; note: nearly all actives have a fitted effect of over 55% in size
Conditions: HEK293 HTT-AS promoter firefly luciferase reporter, 24 h; series mostly up to 57.5 µM; activity change, positive = activation: at the top concentration
Procedure, shortened: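 Firefly luciferase readout (Dual-Glo, 10 min RT) after 24 h, 37 °C compound exposure (final up to 57.5 uM) of HEK293 reporter cells cultured 24 h beforehand; PTC124 at 50 uM final as control inhibitor; activity scaled vehicle 0%, zero RLU -100%.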

Activity change, positive = activation, inactive:
COc1ccc(-c2cc(C(F)(F)F)n3nc(C(=O)Nc4cc(Cl)cc(Cl)c4)cc3n2)cc1 -3.08% [at 11.5 µM, percent change from vehicle, -100% = no light]
CCCCC(=O)Nc1ccccc1C(=O)OCc1cc(=O)n2nc(C3CCCCC3)sc2n1 -23.6%
CCN(CC)C(=O)Cn1c(=O)n(Cc2ccc(C(=O)NCc3ccccc3Cl)cc2)c(=O)c2ccccc21 -18.6%
O=C(CSc1nccn1-c1ccc(F)cc1)Nc1ccc(OC(F)(F)F)cc1 -18.5%
CCOC(=O)c1c(-c2ccc(Br)cc2)csc1NC(=O)c1ccccc1F -11.9%
Cc1ccc2c(C)c(C(=O)N(Cc3ccc(Cl)cc3)C3CCS(=O)(=O)C3)oc2c1 (stereo unspecified) -25.6%
COc1cc2c(cc1OC)C(COc1ccc3c(C)cc(=O)oc3c1)N(C(=O)c1ccc(Cl)cc1)CC2 (stereo unspecified) -4.79%
O=C1CN(C(=O)c2ccccc2C(F)(F)F)C(c2ccccc2)c2cc(F)ccc2N1 (stereo unspecified) -12.8%
O=C1[C@@H]2CSC(c3ccc(C(F)(F)F)cc3)N2C(=O)N1c1ccccc1 (stereo partly specified) -29.3%
CCCNc1c(NC(=O)c2ccc(OCCC)cc2)c(=O)oc2ccccc12 -18.1%
Cc1ccccc1Cn1c(=O)n(Cc2ccc(Cl)cc2)c(=O)c2cccnc21 -16.8%
COc1ccc(OC)c(NC(=O)CSC2=Nc3ccccc3C3=NC(CC(=O)NCc4ccc5c(c4)OCO5)C(=O)N23)c1 (stereo unspecified) -22.1%
COc1cc(Cl)c(C)cc1NC(=O)c1sc2nc3n(c(=O)c2c1C)CCCCC3 -5.42%
CCOC(=O)c1c(NC(=O)c2nc(SC(C)C)ncc2Cl)sc2c1CCCC2 17.1%
Cn1c(SCc2ccc(C(F)(F)F)cc2)nc2c([nH]c3ccccc32)c1=O -6.85%
O=c1cc(N2CCN(c3ccc(F)cc3)CC2)[nH]c(=O)n1-c1ccc(Br)cc1 -2.34%
COc1cc(NC(=O)N2CCC(CN3CCCC3)CC2)cc(OC)c1OC -7.03%
COc1cc(C(=O)NCC(c2cccnc2)N2CCc3ccccc32)cc(OC)c1OC (stereo unspecified) -16.5%
CN(C)c1ccc(C(CNS(=O)(=O)c2ccccc2)N2CCc3ccccc32)cc1 (stereo unspecified) 9.97%
CC(=O)c1c(C)oc2c(Cl)cc(NS(=O)(=O)c3ccc(Cl)cc3)cc12 2.07%
Cc1ccc(CNC(=O)C(CC(C)C)NS(=O)(=O)c2ccc3c(c2)oc(=O)n3C)cc1 (stereo unspecified) -9.1%
Cc1cccc(N2CCN(CCNC(=O)C3COc4ccccc4C3)CC2)c1C (stereo unspecified) -24.7%
O=C(NCc1ccc(Cl)cc1)c1cnc(N2CCCCC2)c2ccccc12 -35%
O=C(O)c1cc(-n2c(/C=C\c3ccc(F)cc3)nc3ccccc3c2=O)ccc1Cl -12.3%
Cc1ccc(Cc2nc3ccccc3nc2SCC(=O)Nc2ccc3c(c2)OCO3)cc1 -33.5%
Cc1ccc(S(=O)(=O)NCCS(=O)(=O)N2CCN(c3ccccc3)CC2)cc1 -28.9%
COc1ccc(CNC(=O)C2CCN(Cc3nc(-c4ccc(Cl)cc4)oc3C)CC2)cc1 -6.77%
Cc1nc(N2CCOCC2)c2c(C(=O)Nc3cccc(C(F)(F)F)c3)c(C)oc2n1 -18.2%
CSc1ccc(CCNC(=O)CCc2c(C)nc3c(c(C)nn3-c3ccccc3)c2C)cc1 2.05%
O=C(NC1CC(=O)N(c2cccc(F)c2)C1)c1ccc(Br)o1 (stereo unspecified) -10.1%
CC(=O)c1ccc(NC(=O)CCSc2nc(-c3ccco3)cc(C(F)(F)F)n2)cc1 10.2%
Cc1c(S(=O)(=O)c2cccc(Cl)c2)nnn1-c1cccc(C(F)(F)F)c1 -29.8%
COc1cc(C(=O)Nc2ccc3nc(SCc4ccc(C)cc4)sc3c2)cc(OC)c1OC -29.3%
COc1ccc2c(c1OC)C(=O)O[C@@H]2[C@H]1c2c(cc3c(c2OC)OCO3)CCN1C -24.2%
CCCC(=O)N1CCN(c2nc3c(OC)ccc(C)c3s2)CC1 -10.6%
CCOc1ccc(-n2c(SCC(=O)N3CCOCC3)nc3c([nH]c4ccccc43)c2=O)cc1 -18%
CC(C)(C)OC(=O)N1CCC(c2c(C(=O)N3CCN(C(=O)c4ccco4)CC3)cnn2-c2cccc(F)c2)CC1 -0.961%
O=C(Nc1cccc(F)c1)c1ccc2snnc2c1 5.81%
Cc1ccc(C)c(Nc2nnc(-n3nc(C)cc3C)c3ccccc23)c1 -24.1%
CCN(c1ccccc1)S(=O)(=O)c1nnc(NC(=O)c2cccs2)s1 -32.3%
Cc1ccc(-n2nc(C(=O)N3CCC(C)CC3)c(=O)n(C)c2=O)cc1 -5.67%
CCOc1ccccc1NC(=O)CSc1nc2c(oc3ccccc32)c(=O)n1-c1ccc(C)c(C)c1 -21.3%
COc1cc(OC)c(OC)cc1/C=C/c1nc2cc3ccccc3cc2c(=O)n1-c1ccc(Cl)cc1 -22.5%
CCOC(=O)CC(NS(=O)(=O)c1ccc2[nH]c3c(c2c1)CCCC3)c1ccccc1Cl (stereo unspecified) -30.6%
CC(C)OCCCNC(=O)c1ccc2c(c1)N(Cc1c(F)cccc1Cl)C(=O)c1ccccc1S2 -38.9%
COc1ccc(-c2nn3c(=O)cc(CN4CCN(C(=O)c5ccc(C(C)(C)C)cc5)CC4)nc3s2)cc1 -8.82%
Cc1ccc(Oc2c(C(F)(F)F)oc3c(CN4CCCCC4C)c(O)ccc3c2=O)cc1 (stereo unspecified) -5%
COc1ccc(C(=O)NCC(c2cccnc2)N2CCc3ccccc32)cc1 (stereo unspecified) -39.8%
CCOC(=O)c1c(N)n(-c2ccc(C)c(Cl)c2)c2nc3ccccc3nc12 -6.8%
O=C(CCC1N=C2c3ccccc3N=C(SCc3ccc(F)cc3)N2C1=O)NCc1cccs1 (stereo unspecified) -17.8%
CC1=C(c2ccc(C)c(C)c2)S(=O)(=O)N(Cc2ccc(C(=O)NCc3cccc(C)c3)cc2)C1=O -21%
Cc1cccc(NC(=O)c2oc3ccccc3c2NC(=O)Cc2coc3c(C)c(C)ccc23)c1 6.18%
CCC(C(=O)Nc1cc(Cl)ccc1OC)n1nc(-c2ccccc2)ccc1=O (stereo unspecified) -36.6%
CCOC(=O)C1=C(CS(=O)(=O)c2cccc(C(F)(F)F)c2)NC(=O)NC1c1cccc(OC)c1 (stereo unspecified) -25.3%
CC(C)c1ccc(NC(=O)C2CCCN(S(=O)(=O)c3cccc4cccnc34)C2)cc1 (stereo unspecified) 3.78%
COC(=O)c1c(-c2ccc(Cl)cc2)noc1N1CCN(c2ccc(C)cc2C)CC1 -16.2%
CCOC(=O)Cc1ccc(NC(=O)N2CCOc3ccc(C)cc32)cc1 -6.36%
COc1ccc(OC)c(NC(=O)c2noc3c2CCCC3)c1 29.2%
CCOC(=O)c1cc(S(=O)(=O)N2CCN(c3ccccc3)CC2)[nH]n1 -22.8%
Cc1ccc(OC(C)C(=O)Nc2nonc2-c2ccc(Br)cc2)cc1C (stereo unspecified) -11.8%
Cc1ccc2nc(N(Cc3cccnc3)C(=O)COc3ccccc3)sc2c1 35.8%
CCOC(=O)Cn1c(=O)oc2cc(S(=O)(=O)N3CCN(c4cccc(C)c4C)CC3)ccc21 -11.5%
O=C(Cn1cc(C(=O)c2ccco2)c2ccccc21)Nc1ccc(Br)cc1 -5.51%
O=C(CSc1ccccc1)N1CCc2c([nH]c3ccccc23)C1c1ccc(F)cc1 (stereo unspecified) -27.4%
CC1CCN(S(=O)(=O)c2cn(CC(=O)Nc3cccc(C(F)(F)F)c3)c(=O)c3ccccc23)CC1 -28.2%
CSc1ncc2c(n1)-c1ccccc1N(Cc1ccc(Cl)cc1)S2(=O)=O -1.05%
CCOC(=O)c1cnn(-c2ccc(C(=O)Nc3cc(OC)c(OC)c(OC)c3)cc2)c1N -16.7%
COc1cccc(C(=O)Nc2cccc(C(=O)OCc3cc(=O)n4nc(C5CC5)sc4n3)c2)c1 22.1%
Nc1c(-c2nc(-c3cccs3)no2)nnn1-c1ccc(Cl)cc1 15.8%
CCn1c(C(=O)NCCc2ccc(OC)c(OC)c2)cc2sc(Cl)cc21 -27.4%
CCC1CCCCN1C(=O)Cn1c(=O)n(CCCCCC(=O)NCc2ccccc2)c(=O)c2sccc21 (stereo unspecified) 1.58%
CSc1ncc(Cl)c(C(=O)Nc2ccc(NC(C)=O)cc2)n1 -18.3%
CCCCNc1nc(Oc2ccc(OCC)nn2)nc(N2CCOCC2)n1 13.5%
COc1ccc(Cl)cc1NC(=O)c1c(NCc2ccc(C)o2)sc2c1CCCCC2 -14.6%
CCCn1c2ccccc2c2cnn(CC(=O)N(C)c3ccc(F)cc3)c(=O)c21 -26.5%
COc1cccc(CSc2nc3ccccc3c3nc(CCn4c(C)nc5ccccc54)nn23)c1 -18.3%
CN(C)CCN(C)C(=O)c1ccc(NC(=O)Nc2ccc(-c3nc(N4CCOCC4)c4ccn(CC(F)(F)F)c4n3)cc2)cc1 -46.8%
COc1ccccc1CNC(=O)C1CCCN(c2nc3ccccc3n3cccc23)C1 (stereo unspecified) -45.7%
O=C(C1CC1)N1CCc2cc(Br)cc(S(=O)(=O)N3CCN(c4cccc(C(F)(F)F)c4)CC3)c21 -10.2%
COc1ccc(Cl)cc1C(=O)Nc1sc2c(c1C(=O)OC(C)C)CCCC2 12.1%
CCCCOc1ccc(-c2nn(-c3ccccc3)cc2C2NC(=O)NC(C)=C2C(=O)OC)cc1 (stereo unspecified) -20%
CC(=O)N1CCc2cc(Br)cc(S(=O)(=O)N3CCN(c4cccc(C(F)(F)F)c4)CC3)c21 6.6%
CCCCN(C)c1nc2c(S(=O)(=O)c3ccc(CC)cc3)nnn2c2ccc(Cl)cc12 17.1%
COc1ccccc1NC(=O)C1=C(C)Nc2c(C(=O)Nc3ccc(F)cc3)cnn2C1c1cccc([N+](=O)[O-])c1 (stereo unspecified) -24.5%
COc1cc(C(CC(=O)NCc2ccc(F)cc2)N2Cc3ccccc3C2=O)cc(OC)c1OC (stereo unspecified) -25.5%
COc1ccc(NC(=O)Cn2c(=O)n(-c3ccc(OC)c(OC)c3)c(=O)c3ccccc32)cc1 -18.3%
Cc1noc(/C=C/c2cccs2)c1S(=O)(=O)N1CCC(C(=O)Nc2ccc(F)c(Cl)c2)CC1 -37.8%
CC(=O)c1ccc(N2CCN(c3ncnc4c3c(-c3ccccc3)cn4-c3cccc(C)c3)CC2)cc1 -15.5%
COc1ccc(C(F)(F)F)cc1NC(=O)c1sc2nc(-c3cccs3)ccc2c1N 11.1%
CCOC(=O)c1ccc(NC(=O)c2c(-c3c(F)cccc3Cl)noc2C)cc1 -23.2%
CCC(=O)N1CCc2cc(Br)cc(S(=O)(=O)N3CCC(C(=O)NCCCOC(C)C)CC3)c21 2.81%
